Reference: PubChem BioAssay AID504706 (National Center for Advancing Translational Sciences (NCATS), 2011)
Among all 320,000 compounds or so, about 200 (0.062%) were called active. Inconclusive means that the source gave no clear call. Such entries were picked first, then a sample of the others. Calls follow the shape of the dose curve; as a rule, active = well fitted activation curve with a large enough effect; inconclusive = small, poorly fitted or top-dose-only effect; inactive = no such curve, though single readings can be large or run the other way. No potency is given beside an inconclusive call; the fits are too rough.

experiment: qHTS assay for re-activators of p53 using a Luc reporter; conditions: H1299 p53-A138V BP100-luciferase reporter, luminescence, 24 h; series mostly up to 92.2 µM; activity change, positive = activation: at the top concentration; also: nearly all actives have a fitted effect of over 45% in size; as to activity change, positive = activation: % of control where 0% means no effect
Summary of the method: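 H1299 (p53-null), stable ts p53-A138V + BP100-Luc; 1000 cells/well, Opti-MEM/10% FBS; cpd 4 pt, 1:5; 24 h, 37 deg C, 5% CO2; detection reagent 10 min RT; luminescence.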
Potency is read from the fitted curve at half-maximal effect; tags tell the direction and shape of the fitted curve.

Question: Which Potency does the source give for `Cc1cc2c(cc1C)N(CC(=O)N1CCCC1)C(=O)CC(c1ccccc1)=N2` here?
Answer: inconclusive [activator, full curve, poor fit]

Question: With `Nc1c(C(=O)Nc2ccccc2)sc2nc(-c3cccnc3)ccc12` as the compound, how does the “activity change, positive = activation” value read?
Answer: inactive: 1.65%

Question: Which “activity change, positive = activation” value does the source give for `CCc1ccc(CN(C)C(=O)CC2C(=O)NCCN2Cc2ccoc2)cc1` (configuration not stated) here?
Answer: inactive: -0.632%

Question: With `C=CCSc1nc2ccccc2n1C(=O)/C=C/c1cc(OC)c(OC)c(OC)c1` as the compound, how does the “activity change, positive = activation” value read?
Answer: inactive: -10.1%

Question: For `O=C(NCCc1ccc(F)cc1)c1ccc(Cl)c(S(=O)(=O)N2CCOCC2)c1`, which Potency is on record?
Answer: inconclusive [activator, partial curve, poor fit]

Question: With `O=C(NCCOc1ccccc1F)c1ccc2c(=O)n3c(nc2c1)CCC3` as the compound, how does the Potency read?
Answer: inconclusive [activator, full curve, poor fit]

Question: For `NC(=O)c1ccc(-c2ncc(-c3ccccc3)o2)cc1`, which “activity change, positive = activation” value is on record?
Answer: inactive: 1.69%

Question: For `O=C(N/C(=C\c1cn(-c2ccccc2)nc1-c1ccccc1)C(=O)N1CCOCC1)c1ccccc1`, which Potency is on record?
Answer: inconclusive [activator, partial curve, poor fit]

Question: Which Potency does the source give for `CC12CN(C(=O)c3cccc([N+](=O)[O-])c3)C3(C#N)CC1CCC23C` (configuration not stated) here?
Answer: inconclusive [activator, partial curve, poor fit]

Question: With `COc1ccccc1Nc1nc(-c2c(C)[nH]c3ccccc23)cs1` as the compound, how does the Potency read?
Answer: inconclusive [activator, single point]

Question: With `CCCCn1c(N)nc2ccccc21` as the compound, how does the “activity change, positive = activation” value read?
Answer: inactive: -5.28%

Question: Which Potency does the source give for `COc1ccc(-c2cc(C(=O)Nc3cc(Cl)ccc3O)no2)cc1` here?
Answer: inconclusive [activator, full curve, poor fit]

Question: With `Oc1ccc2ccccc2c1N=Nc1ccccc1F` as the compound, how does the Potency read?
Answer: inconclusive [activator, partial curve, poor fit]

Question: Which Potency does the source give for `CN(C)c1c(F)cc(C(=O)NC(=O)NCc2cccnc2)cc1F` here?
Answer: inconclusive [activator, single point]

Question: For `N=C1/C(=C/c2ccc(-c3cccc(C(=O)O)c3)o2)C(=O)N=C2SC(CC(=O)N3CCOCC3)=NN12`, which Potency is on record?
Answer: inconclusive [activator, partial curve]

Question: With `CNC(=S)NNC(=O)CNc1ccc(C)c(Cl)c1` as the compound, how does the “activity change, positive = activation” value read?
Answer: inactive: -2.36%

Question: Which Potency does the source give for `CC1CCC(NC(=O)C(=O)Nc2ccc3c(c2)OCO3)CC1` (configuration not stated) here?
Answer: inconclusive [activator, partial curve, poor fit]

Question: For `CN(C)c1ccc(/C=C(\C#N)c2ccccc2)cc1`, which Potency is on record?
Answer: inconclusive [activator, full curve, poor fit]

Question: For `CCn1c(-c2cccn(Cc3ccccc3)c2=O)n[nH]c1=S`, which “activity change, positive = activation” value is on record?
Answer: inactive: -2.14%

Question: Which “activity change, positive = activation” value does the source give for `O=C(CSc1nnc(COc2ccc(Cl)cc2)o1)Nc1ccc(N2CCOCC2)cc1` here?
Answer: inactive: 4.39%

Question: Which “activity change, positive = activation” value does the source give for `CC(C)Oc1ccc(/C=C/C(=O)NCC2COc3ccccc3O2)cc1` (configuration not stated) here?
Answer: inactive: -3.64%

Question: Which Potency does the source give for `O=C(Nc1ccc(Br)cc1F)c1ccc2c(c1)OCCO2` here?
Answer: inconclusive [activator, full curve, poor fit]

Question: With `Cc1cc(C)cc(NC(=O)Cn2c(SCc3cc(C)ccc3C)nc3ccncc32)c1` as the compound, how does the Potency read?
Answer: inconclusive [activator, partial curve, poor fit]

Question: Which “activity change, positive = activation” value does the source give for `CCOc1ccccc1/C=C(/C#N)C(N)=O` here?
Answer: inactive: -2.6%

Question: With `O=C(NC(=S)N(CCc1ccccc1)CCc1ccccc1)c1ccco1` as the compound, how does the Potency read?
Answer: inconclusive [activator, single point]

Question: Which Potency does the source give for `O=C(NNC(=O)c1ccccc1Cl)c1cccs1` here?
Answer: inconclusive [activator, partial curve, poor fit]

Question: For `Cc1ccc(C(=O)Nc2nc(-c3cccnc3)cs2)o1`, which Potency is on record?
Answer: inconclusive [activator, single point]

Question: Which Potency does the source give for `COc1cccc(NS(=O)(=O)c2ccc3[nH]cc(C(=O)NCCCOC(C)C)c(=O)c3c2)c1` here?
Answer: inconclusive [activator, partial curve, poor fit]

Question: With `c1ccc(N/N=C(\Cc2nc3ccccc3[nH]2)c2ccccc2)cc1` as the compound, how does the Potency read?
Answer: inconclusive [activator, full curve, poor fit]

Question: With `COc1ccc(S(=O)(=O)NCc2cccnc2)cc1Br` as the compound, how does the “activity change, positive = activation” value read?
Answer: inactive: -1.19%

Question: Which “activity change, positive = activation” value does the source give for `COc1ccccc1N1CCN(S(=O)(=O)CCNC(=O)C2CCCCC2)CC1` here?
Answer: inactive: -2.27%

Question: With `O=C(/C=C/c1ccc(Br)cc1)c1ccc(NC(=O)c2ccco2)cc1` as the compound, how does the Potency read?
Answer: inconclusive [activator, partial curve, poor fit]

Question: Which Potency does the source give for `COc1cc([N+](=O)[O-])cc(/C=N/NC(=O)C(C)Nc2cccc3ccccc23)c1O` (configuration not stated) here?
Answer: inconclusive [activator, partial curve, poor fit]

Question: Which Potency does the source give for `O=C(CSc1nnc(-c2cccnc2)o1)Nc1ccccc1F` here?
Answer: inconclusive [activator, full curve, poor fit]

Question: For `CCOC(=O)CSc1nnc(-c2ccccc2NC(=O)c2ccccc2)o1`, which “activity change, positive = activation” value is on record?
Answer: inactive: -11.2%

Question: With `N#C/C(=C\c1ccc[nH]1)C(=O)Nc1ccccc1F` as the compound, how does the Potency read?
Answer: inconclusive [activator, partial curve, poor fit]

Question: Which Potency does the source give for `Cc1cc(C(=O)N/N=C/c2ccc(O)c([N+](=O)[O-])c2)c(C)n1-c1ccc(F)cc1` here?
Answer: inconclusive [activator, full curve, poor fit]

Question: Which Potency does the source give for `CCCOc1ccc(N2C(=O)CC(N(Cc3ccc(OC)cc3)C(=S)Nc3ccccc3)C2=O)cc1` (configuration not stated) here?
Answer: inconclusive [activator, full curve]

Question: Which “activity change, positive = activation” value does the source give for `CCOC(=O)c1ccccc1NC(=O)COC(=O)c1ccccc1C(=O)N(C)c1ccccc1` here?
Answer: inactive: -3.52%

Question: Which Potency does the source give for `COc1ccc(-c2noc(=O)n2Cc2ccccc2F)cc1` here?
Answer: inconclusive [activator, single point]

Question: With `CCc1cc2cc(C)cc(C)c2[nH]c1=S` as the compound, how does the “activity change, positive = activation” value read?
Answer: inactive: 2.73%

Question: Which Potency does the source give for `Cc1nnc(NC(=O)c2oc3ccccc3c2C)s1` here?
Answer: inconclusive [activator, full curve, poor fit]

Question: Which Potency does the source give for `O=[N+]([O-])c1ccc(O)c(/C=N/Nc2ncnc3c2cnn3-c2ccccc2)c1` here?
Answer: inconclusive [activator, full curve]

Question: For `COc1cc(OC)cc(C(=O)NC(C(=O)NCc2ccccn2)C(C)C)c1` (configuration not stated), which Potency is on record?
Answer: inconclusive [activator, single point]

Question: For `Cc1cc(C(=O)N/N=C/c2ccc([N+](=O)[O-])s2)c2ccccc2n1`, which Potency is on record?
Answer: inconclusive [activator, full curve]

Question: Which Potency does the source give for `CCc1c(C)nc2cc(-c3cccc(Br)c3)[nH]n2c1=O` here?
Answer: inconclusive [activator, single point]

Question: Which “activity change, positive = activation” value does the source give for `CCOC(=O)c1c(C)[nH]c(C(=O)OCC(=O)Nc2cc(Cl)ccc2OC)c1C` here?
Answer: inactive: 10.2%

Question: With `COc1cc(CNc2ccc3c(c2)CCC3)cc(OC)c1O` as the compound, how does the Potency read?
Answer: inconclusive [activator, partial curve, poor fit]

Question: Which Potency does the source give for `CC(=O)Nc1ccc(C(=O)COC(=O)C2CC2C)c(F)c1` (configuration not stated) here?
Answer: inconclusive [activator, full curve, poor fit]

Question: With `CCc1cc(C(=O)Cc2nc3ccccc3[nH]2)c(O)cc1O` as the compound, how does the Potency read?
Answer: inconclusive [activator, full curve, poor fit]

Question: For `O=C(Nc1ccc2nsnc2c1)N1CCCCCC1`, which “activity change, positive = activation” value is on record?
Answer: inactive: 22.7%

Question: With `COc1cc(CN(C(=O)c2cc3ccccc3oc2=O)C2CCS(=O)(=O)C2)cc(OC)c1OC` (configuration not stated) as the compound, how does the Potency read?
Answer: inconclusive [activator, single point]

Question: With `O=C1ON=C(c2ccccc2[N+](=O)[O-])/C1=C/c1cccc([N+](=O)[O-])c1O` as the compound, how does the Potency read?
Answer: inconclusive [activator, single point]

Question: With `Cc1cccc(NC(=O)CSc2ccc(-c3cccs3)nn2)c1C` as the compound, how does the Potency read?
Answer: inconclusive [activator, single point]

Question: Which Potency does the source give for `Nc1ccc(C(=O)OCCc2ccccc2)cc1` here?
Answer: inconclusive [activator, partial curve, poor fit]

Question: Which Potency does the source give for `COc1ccccc1-c1nc(-c2ccc(Br)cc2)no1` here?
Answer: inconclusive [activator, partial curve, poor fit]

Question: With `CCc1ccc(-c2cnc3ccccc3n2)cc1NC(=O)CNC(=O)c1ccccc1` as the compound, how does the Potency read?
Answer: inconclusive [activator, partial curve, poor fit]

Question: With `Cc1nc(SCC(=O)c2ccc(F)cc2)c([N+](=O)[O-])[nH]1` as the compound, how does the Potency read?
Answer: inconclusive [activator, single point]

Question: Which Potency does the source give for `COc1ccc2cc(C(=O)N(C)CC(=O)Nc3ccccc3Br)ccc2c1` here?
Answer: inconclusive [activator, partial curve, poor fit]

Question: Which “activity change, positive = activation” value does the source give for `C=CCC[C@@H](Cc1ccc(F)cc1)C(=O)OC[C@H](Cc1c[nH]c2ccccc12)NC(=O)[C@H](CC=C)CC(=O)NCCO` here?
Answer: inactive: -4.84%

Question: Which Potency does the source give for `O=C(NC1=NCCS1)c1ccc(-c2ccc(Cl)cc2)o1` here?
Answer: inconclusive [activator, partial curve, poor fit]

Question: With `O=C(O)c1c(-c2ccccc2)oc2ccc(O)cc12` as the compound, how does the “activity change, positive = activation” value read?
Answer: inactive: -3.45%

Question: Which Potency does the source give for `Cc1cc(C(=O)CSc2ccccc2)cc(C)c1O` here?
Answer: inconclusive [activator, partial curve, poor fit]

Question: With `NNc1nc(-c2ccccc2Cl)nc2ccccc12` as the compound, how does the Potency read?
Answer: inconclusive [activator, single point]

Question: For `Cc1nonc1C(=O)N/N=C/c1cccc(O)c1`, which Potency is on record?
Answer: inconclusive [activator, full curve, poor fit]

Question: Which Potency does the source give for `O=C(O)C1CC(=O)N(CCc2ccc(F)cc2)C1` (configuration not stated) here?
Answer: inconclusive [activator, partial curve, poor fit]

Question: With `O=C(Nc1ccc2[nH]c(=S)sc2c1)c1ccccc1` as the compound, how does the “activity change, positive = activation” value read?
Answer: inactive: 8.27%
